Test results as given in the supplement of paper PMC3334620.
Over roughly 33,000 sequences, “E-score (-0.5 to 0.5)” has its median near -0.04; the highest 2% begin near 0.36. The list shows a part of the results.

These sequences were tested against T1, Hmlalpha2 (UniProt P0CY09) (assay: PBM E-score (8-mer binding enrichment) (E-score (-0.5 to 0.5)); higher = stronger / more preferred TF binding; most listed sequences are background and not binding sites). Conditions: protein concentration: 200 nM; construct: GST-full length.
T1 sequence: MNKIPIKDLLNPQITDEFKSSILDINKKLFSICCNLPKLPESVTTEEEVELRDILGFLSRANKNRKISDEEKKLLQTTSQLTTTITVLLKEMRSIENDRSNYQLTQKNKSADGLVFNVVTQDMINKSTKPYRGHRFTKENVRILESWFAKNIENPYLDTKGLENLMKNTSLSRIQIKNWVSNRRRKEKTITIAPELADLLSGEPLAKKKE
In short: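 The E-score, a modified Wilcoxon-Mann-Whitney statistic, was computed by the Universal PBM Analysis Suite for every ungapped eight-base word pooled with its reverse complement. Scans behind it were normalised with masliner after bound GST-tagged yeast transcription factors were detected with fluorescent anti-GST. The proteins, at about 100-200 nM, had been applied to universal all-10-mer Agilent arrays made double-stranded by primer extension.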

| Sequence | PBM E-score |
| --- | --- |
| CTGTTTTA | 0.0458 |
| CAACATGC | 0.398 |
| CCAATACC | -0.111 |
| GCACCGGA | -0.273 |
| CGTCCGTA | 0.00793 |
| ACCTAGAT | -0.129 |
| CAACAATC | 0.262 |
| CTTGTCCA | -0.0934 |
| CAACTCGC | 0.176 |
| CCCTCTAA | -0.218 |
| GTCACAGA | -0.143 |
| ATAGCGAA | 0.0732 |
| CACGTACG | 0.0953 |
| TGAGAGAA | 0.0317 |
| AGACGGTC | -0.222 |
| AACGGGAC | -0.23 |
| TGTTCTAA | 0.236 |
| CACCCCGA | -0.258 |
| GCACGTCC | -0.0501 |
| CGCGCGCA | 0.0221 |
| ATCCTCGC | -0.199 |
| ACCCGGGC | -0.235 |
| ATAAGCAG | -0.00191 |
| ACTATACC | 0.00961 |
| CGTACGGA | -0.126 |

| Sequence | PBM E-score |
| --- | --- |
| GTTGACCA | 0.038 |
| AAGTTACT | 0.0608 |
| CCTAGAGG | -0.202 |
| TCAATACA | 0.372 |
| AGCGAGTG | 0.107 |
| AAGAGTCA | -0.00825 |
| AATGAAAG | 0.0405 |
| ATAACACC | 0.259 |
| GTGTGCTA | 0.0731 |
| ATATCTCG | -0.151 |
| CATGCGTC | 0.0587 |
| AGCCGAGC | -0.209 |
| GAGCGAAC | -0.14 |
| GAGCGTCA | -0.107 |
| CGGTATGA | 0.058 |
| GGTGTCTA | 0.221 |
| AGATTAAG | 0.0165 |
| GGGTGAAA | 0.0237 |
| AGGGTAGC | -0.247 |
| AGTCGACG | 0.111 |
| TGGCGCAA | -0.199 |
| GCCGTGAA | -0.197 |
| ATTAACTC | 0.216 |
| AGAGCACC | -0.269 |
| ACGTGATA | 0.163 |

| Sequence | PBM E-score |
| --- | --- |
| AAAAAAGA | 0.0142 |
| CTACTCGA | 0.126 |
| AATTAGCA | 0.137 |
| TCACCGAA | 0.0184 |
| AGCGGACA | -0.196 |
| ACATAAAC | 0.337 |
| TCGCCAGA | -0.216 |
| ATTAACGC | 0.372 |
| AATAAACC | -0.0152 |
| CATACTCG | -2e-05 |
| AGACAGCA | -0.135 |
| ACCGAAAG | 0.0654 |
| AAGTGTTA | 0.276 |
| TACTACAA | 0.299 |
| ACACGAGA | 0.291 |
| CAGTCCAA | -0.263 |
| ATGGGCCA | 0.0731 |
| AATATAAC | 0.207 |
| AAATGGTT | 0.0603 |
| CGCCCGAC | -0.151 |
| CTAGTACC | 0.0958 |
| ACGAGAAG | 0.0151 |
| GTAGGATA | 0.0408 |
| AATCCACG | -0.0225 |
| TAAGCATA | 0.115 |

| Sequence | PBM E-score |
| --- | --- |
| ATGAAGTC | -0.115 |
| CGACGGGC | -0.031 |
| CATTCGCG | -0.0123 |
| CTAACGGC | -0.09 |
| CAAGCATG | 0.119 |
| ACCTTAAT | 0.0106 |
| CAATTCAA | 0.0842 |
| AATCGGGC | 0.00681 |
| ATTTAAAT | 0.157 |
| GGATTGCC | -0.29 |
| ACACGAGC | 0.261 |
| ATGACTCG | -0.0578 |
| AACTTAGC | 0.0276 |
| ACAATCCA | 0.0933 |
| AGATAAAG | -0.103 |
| AGTGTTTA | 0.299 |
| CAGCTGCC | -0.273 |
| AGCCAAGA | -0.101 |
| ATTTCGGC | 0.0545 |
| CCCTTTGC | -0.148 |
| AGTGACGG | -0.158 |
| ACTTTGCC | -0.0921 |
| AGAGAAAA | 0.119 |
| GTATATAA | 0.29 |
| ATTGGACG | -0.173 |

| Sequence | PBM E-score |
| --- | --- |
| GTCAGTGA | -0.146 |
| TCCGATCA | -0.00767 |
| ACATATAT | 0.27 |
| CACTACGG | -0.246 |
| ACGACGGC | -0.0422 |
| ACCCCTGA | -0.273 |
| AACCCCGG | -0.232 |
| ATGGATTC | -0.0622 |
| CCACATCA | -0.00283 |
| ACTCTGTG | -0.0258 |
| AAGGTCAT | -0.129 |
| CTGTAACA | 0.223 |
| AAAAAAGT | -0.0192 |
| AATTGAGT | 0.127 |
| CGGTGCCC | -0.0869 |
| CAATGTCA | 0.264 |
| ACTATCGG | -0.242 |
| ACGTAATC | 0.392 |
| CTTCCGTA | -0.00688 |
| CCGAGGCG | -0.323 |
| TCACGGCA | -0.0555 |
| TGGACTAA | -0.0654 |
| AGCAAAAA | 0.165 |
| ACACACGT | 0.352 |
| ATCCAAGG | -0.254 |

| Sequence | PBM E-score |
| --- | --- |
| GGATGACA | 0.0472 |
| ACAGTCGG | -0.0533 |
| CTTAGTTA | 0.151 |
| AGTCCTAA | -0.0904 |
| TAACACGA | 0.469 |
| CATTCCAC | -0.0104 |
| GGCAAGCA | -0.213 |
| ACTGTGAC | -0.146 |
| AACCATAG | -0.0629 |
| CTGCTCAA | -0.0451 |
| AACTCCAG | -0.198 |
| GGCTTAGA | -0.122 |
| CTGGGACC | -0.287 |
| CCGCGATC | -0.238 |
| GCGGAAGC | -0.085 |
| AATAAGGA | -0.197 |
| ATTTAAAG | 0.0592 |
| ACTTCACT | 0.12 |
| AGTTGGCA | -0.0319 |
| GCAATGAA | 0.126 |
| GTGATAGA | -0.0196 |
| ATACAGTA | 0.163 |
| CAGCCGCG | -0.172 |
| CCGGGCAG | -0.165 |
| TATTTCCA | -0.0156 |

| Sequence | PBM E-score |
| --- | --- |
| AGAAGACA | 0.0723 |
| CGGAGCCC | -0.415 |
| AAGCGTTG | 0.0949 |
| CTATAGCA | 0.0274 |
| AGGAGAGC | -0.0855 |
| ACCGTGAC | -0.0799 |
| ACTTGACC | 0.0105 |
| TCCATACA | 0.0677 |
| AAAAATGG | -0.0468 |
| CGTGGTAC | 0.0548 |
| GACACGTA | 0.293 |
| GGCTCACA | -0.0742 |
| CATGTCGG | 0.265 |
| CAGCGTAG | -0.0302 |
| AGCGTCTC | -0.27 |
| AAGGACCG | -0.108 |
| CATTCAAG | -0.202 |
| CTACTTAA | -0.0595 |
| GAGTATGC | 0.0811 |
| AGTCCTAG | -0.107 |
| CCTCCGTA | -0.266 |
| CAGTCGTC | -0.24 |
